Drawing on publication PMC5892938, this text covers binding signal (log2 fold change) for 74 sequences.

Some of the results follow. At the low end of the ranking the order means little.

The target of the assay is GST-SBP-SLBP (stem-loop binding protein) (UniProt Q14493). The experiment in a line: targeted RNA Bind-n-Seq.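 Note: DESeq read counts versus GST-SBP nonspecific binding control pulldown.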 The following applies: RBNS binding buffer: 25 mM Tris pH 7.5, 150 mM KCl, 3 mM MgCl2, 0.1% Tween, 0.5 mg/mL BSA, 1 mM DTT; 27 nM protein, 750 pM RNA pool; temperature not stated; high values mean tight binding.
For the sequence “GGUCACGUCUCAAUCAACUCAUUCUCAGGAGUUUGCUCCUGUUUACUCAACAGCUCGCAGUCAAG”, the binding signal (log2 fold change) was 0.269.
Regarding “GGUCACGUCUCAAUCAACUCAAUCCCCAGGGAAAGCCCUGGCUUUCUCAACAGCUCGCAGUCAAG”, the binding signal (log2 fold change) was 0.072.
Under “GGUCACGUCUCAAUCAACUCUCACGAGGGGGGGAAAACCCCUUUACCCUCAUCCUCAACAGCUCGCAGUCAAG” stands -0.248; under “GGUCACGUCUCAAUCAACUCAUUUCCAGGAGUUUUCUCCUGUUAUCUCAACAGCUCGCAGUCAAG”, -0.056; under “GGUCACGUCUCAAUCAACUCUACGCCAGGAGUUUUCUCCUGUAUACUCAACAGCUCGCAGUCAAG”, -0.0539.
Next, “GGUCACGUCUCAAUCAACUCUACUUCCAGGGAAAGCCCUGGUUAAUUCAACAGCUCGCAGUCAAG”: 0.143.
“GGUCACGUCUCAAUCAACUCUAGUCCAGGAGUUUUCUCCUGCUUUUUCAACAGCUCGCAGUCAAG”: the binding signal (log2 fold change) was -0.122.
Next, “GGUCACGUCUCAAUCAACUCUUCCGCAGGAGUUUCCUCCUGGUAUUUCAACAGCUCGCAGUCAAG”: -0.226.
Consider “GGUCACGUCUCAAUCAACUCUAUUUCAGGAGUUUGCUCCUGCAUAUUCAACAGCUCGCAGUCAAG”, for which the binding signal (log2 fold change) is -0.071.
Under “GGUCACGUCUCAAUCAACUCUAAAGAGGGGGGGAAAACCCCUUUACCCUCCAUUUCAACAGCUCGCAGUCAAG” stands -0.542; under “GGUCACGUCUCAAUCAACUCAUUUUCAGGAGUUUACUCCUGCUAUUUCAACAGCUCGCAGUCAAG”, 0.0716.
“GGUCACGUCUCAAUCAACUCUAACGAGGGGGGGAAAACCCCUUUACCCUCAUCAUCAACAGCUCGCAGUCAAG”: the binding signal (log2 fold change) is 0.21.
Next, “GGUCACGUCUCAAUCAACUCUUUCUCAGGAGUUUUCUCCUGCAAUUUCAACAGCUCGCAGUCAAG”: -0.0272; “GGUCACGUCUCAAUCAACUCAUCUUCCAGGGAAAGCCCUGGUAAACUCAACAGCUCGCAGUCAAG”: -0.0582; “GGUCACGUCUCAAUCAACUCCUACGAGGGGGGGAAAACCCCUUUACCCUCUCCAUCAACAGCUCGCAGUCAAG”: -0.649.
Next, “GGUCACGUCUCAAUCAACUCCUUAGAGGGGGGGAAAACCCCUUUACCCUCCUUAUCAACAGCUCGCAGUCAAG”: 0.0877; “GGUCACGUCUCAAUCAACUCAGUUUCAGGAGUUUUCUCCUGUAUAUUCAACAGCUCGCAGUCAAG”: 0.147.
Under “GGUCACGUCUCAAUCAACUCUUUCUCAGGAGUUUACUCCUGUUUACUCAACAGCUCGCAGUCAAG” stands 0.0933; under “GGUCACGUCUCAAUCAACUCUUCGUCAGGAGUUUACUCCUGUUUUUUCAACAGCUCGCAGUCAAG”, -0.168.
Take “GGUCACGUCUCAAUCAACUCAAUUCCCAGGGAAAACCCUGGCAUAGUCAACAGCUCGCAGUCAAG”: the binding signal (log2 fold change) is -0.229.
As to “GGUCACGUCUCAAUCAACUCAUCCGAGGGGGGGAAAACCCCUUUACCCUCAAUCUCAACAGCUCGCAGUCAAG”, the binding signal (log2 fold change) was -0.352.
Next, “GGUCACGUCUCAAUCAACUCUUCGCCCAGGGAAAACCCUGGUAUUCUCAACAGCUCGCAGUCAAG”: -0.0128; “GGUCACGUCUCAAUCAACUCUAUAGAGGGGGGGAAAACCCCUUUACCCUCCAUAUCAACAGCUCGCAGUCAAG”: 0.00458; “GGUCACGUCUCAAUCAACUCAGUCCCCAGGGAAAACCCUGGCAUAUUCAACAGCUCGCAGUCAAG”: -0.271.
Under “GGUCACGUCUCAAUCAACUCCUCAGAGGGGGGGAAAACCCCUUUACCCUCCACGUCAACAGCUCGCAGUCAAG” stands -0.271.
Next, “GGUCACGUCUCAAUCAACUCUACGCCAGGAGUUUCCUCCUGUAAUUUCAACAGCUCGCAGUCAAG”: -0.0618.
In the case of “GGUCACGUCUCAAUCAACUCAUCUCCCAGGGAAAUCCCUGGCAUUUUCAACAGCUCGCAGUCAAG”, the binding signal (log2 fold change) stood at 0.0525.
Under “GGUCACGUCUCAAUCAACUCUUCUCCCAGGGAAAGCCCUGGCAUACUCAACAGCUCGCAGUCAAG” stands -0.089; under “GGUCACGUCUCAAUCAACUCUACGGAGGGGGGGAAAACCCCUUUACCCUCAAAUUCAACAGCUCGCAGUCAAG”, 0.0974.
Under “GGUCACGUCUCAAUCAACUCUUAGGAGGGGGGGAAAACCCCUUUACCCUCAUCGUCAACAGCUCGCAGUCAAG” stands 0.158; under “GGUCACGUCUCAAUCAACUCUAUAGAGGGGGGGAAAACCCCUUUACCCUCACACUCAACAGCUCGCAGUCAAG”, -0.0726; under “GGUCACGUCUCAAUCAACUCUAUCUCCAGGGAAAGCCCUGGCUUAUUCAACAGCUCGCAGUCAAG”, -0.182.
Under “GGUCACGUCUCAAUCAACUCAGUCUCAGGAGUUUCCUCCUGCAAAUUCAACAGCUCGCAGUCAAG” stands 0.0522; under “GGUCACGUCUCAAUCAACUCUAUCGAGGGGGGGAAAACCCCUUUGCCCUCAAAUUCAACAGCUCGCAGUCAAG”, -0.175.
For the sequence “GGUCACGUCUCAAUCAACUCUUCCUCCAGGGAAAACCCUGGCUAUCUCAACAGCUCGCAGUCAAG”, the binding signal (log2 fold change) was 0.291.
Consider “GGUCACGUCUCAAUCAACUCAUCGUCAGGAGUUUGCUCCUGCUAAUUCAACAGCUCGCAGUCAAG”, for which the binding signal (log2 fold change) came to 0.112.
Under “GGUCACGUCUCAAUCAACUCAUUCCCAGGAGUUUUCUCCUGCUUAUUCAACAGCUCGCAGUCAAG” stands 0.181; under “GGUCACGUCUCAAUCAACUCAACUUCCAGGGAAAUCCCUGGUUAUUUCAACAGCUCGCAGUCAAG”, 0.00375; under “GGUCACGUCUCAAUCAACUCUUCUCCCAGGGAAACCCCUGGUAUUUUCAACAGCUCGCAGUCAAG”, -0.0205.
For the sequence “GGUCACGUCUCAAUCAACUCAUUCUCAGGAGUUUACUCCUGCAAUUUCAACAGCUCGCAGUCAAG”, the binding signal (log2 fold change) worked out at 0.00951.
Under “GGUCACGUCUCAAUCAACUCUUUCUCCAGGGAAAGCCCUGGUAUUUUCAACAGCUCGCAGUCAAG” stands -0.156; under “GGUCACGUCUCAAUCAACUCAUUUUCAGGAGUUUACUCCUGCAAACUCAACAGCUCGCAGUCAAG”, -0.0331.
Next, “GGUCACGUCUCAAUCAACUCUCACGAGGGGGGGAAAACCCCUUUACCCUCACUAUCAACAGCUCGCAGUCAAG”: -0.311.
For “GGUCACGUCUCAAUCAACUCUAGUCCAGGAGUUUCCUCCUGCAUAUUCAACAGCUCGCAGUCAAG”, the binding signal (log2 fold change) was -0.106.
Next, “GGUCACGUCUCAAUCAACUCAUUCGAGGGGGGGAAAACCCCUUUACCCUCUUUUUCAACAGCUCGCAGUCAAG”: 0.219; “GGUCACGUCUCAAUCAACUCUUUCCCCAGGGAAAACCCUGGUUUUCUCAACAGCUCGCAGUCAAG”: 0.0844.
Next, “GGUCACGUCUCAAUCAACUCUUCCUCCAGGGAAAGCCCUGGUAUAUUCAACAGCUCGCAGUCAAG”: -0.239.
With “GGUCACGUCUCAAUCAACUCUAGUCCAGGAGUUUCCUCCUGCAAAUUCAACAGCUCGCAGUCAAG”, the binding signal (log2 fold change) was 0.054.
Next, “GGUCACGUCUCAAUCAACUCAUCUCCCAGGGAAAGCCCUGGUUUUUUCAACAGCUCGCAGUCAAG”: -0.0742; “GGUCACGUCUCAAUCAACUCAAAAGAGGGGGGGAAAACCCCUUUACCCUCAUUAUCAACAGCUCGCAGUCAAG”: -0.185; “GGUCACGUCUCAAUCAACUCAGUCUCCAGGGAAAUCCCUGGUAUUUUCAACAGCUCGCAGUCAAG”: 0.347.
With “GGUCACGUCUCAAUCAACUCUAUCCCCAGGGAAAUCCCUGGCUAACUCAACAGCUCGCAGUCAAG”, the binding signal (log2 fold change) is -0.215.
With “GGUCACGUCUCAAUCAACUCAAUGUCCAGGGAAACCCCUGGUUUUUUCAACAGCUCGCAGUCAAG”, the binding signal (log2 fold change) was -0.578.
Under “GGUCACGUCUCAAUCAACUCCUCAGAGGGGGGGAAAACCCCUUUACCCUCAUCGUCAACAGCUCGCAGUCAAG” stands 0.186.
On to “GGUCACGUCUCAAUCAACUCAUUCUCCAGGGAAAGCCCUGGCAAACUCAACAGCUCGCAGUCAAG”, for which the binding signal (log2 fold change) was determined as 0.0108.
Under “GGUCACGUCUCAAUCAACUCAGUCCCCAGGGAAAUCCCUGGUAUUUUCAACAGCUCGCAGUCAAG” stands 0.13; under “GGUCACGUCUCAAUCAACUCUAUUCCCAGGGAAAUCCCUGGCAAACUCAACAGCUCGCAGUCAAG”, -0.216.
Consider “GGUCACGUCUCAAUCAACUCAACUUCCAGGGAAAUCCCUGGUAUACUCAACAGCUCGCAGUCAAG”, for which the binding signal (log2 fold change) turned out to be 0.213.
For the sequence “GGUCACGUCUCAAUCAACUCAACUUCCAGGGAAACCCCUGGUAUACUCAACAGCUCGCAGUCAAG”, the binding signal (log2 fold change) is -0.297.
Regarding “GGUCACGUCUCAAUCAACUCGUUUUCAGGAGUUUUCUCCUGCUUAUUCAACAGCUCGCAGUCAAG”, the binding signal (log2 fold change) stood at 0.0607.
Under “GGUCACGUCUCAAUCAACUCUUUCUCAGGAGUUUGCUCCUGCAUUUUCAACAGCUCGCAGUCAAG” stands 0.0897.
As to “GGUCACGUCUCAAUCAACUCUAGUCCCAGGGAAAACCCUGGUUAAUUCAACAGCUCGCAGUCAAG”, the binding signal (log2 fold change) was -0.135.
Next, “GGUCACGUCUCAAUCAACUCUAUUUCAGGAGUUUCCUCCUGUAUACUCAACAGCUCGCAGUCAAG”: 0.011; “GGUCACGUCUCAAUCAACUCUUCAGAGGGGGGGAAAACCCCUUUACCCUCGUCUUCAACAGCUCGCAGUCAAG”: 0.152.
Take “GGUCACGUCUCAAUCAACUCAAUCUCAGGAGUUUCCUCCUGUUUUCUCAACAGCUCGCAGUCAAG”: the binding signal (log2 fold change) was 0.145.
Next, “GGUCACGUCUCAAUCAACUCUACUUCCAGGGAAACCCCUGGUAAAUUCAACAGCUCGCAGUCAAG”: -0.209.
On to “GGUCACGUCUCAAUCAACUCUUCCUCAGGAGUUUCCUCCUGCUUAUUCAACAGCUCGCAGUCAAG”, for which the binding signal (log2 fold change) was -0.0685.
As for “GGUCACGUCUCAAUCAACUCAUUCGAGGGGGGGAAAACCCCUUUACCCUCUAUUUCAACAGCUCGCAGUCAAG”, the binding signal (log2 fold change) was -0.403.
Under “GGUCACGUCUCAAUCAACUCCUCAGAGGGGGGGAAAACCCCUUUACCCUCAACAUCAACAGCUCGCAGUCAAG” stands 0.205; under “GGUCACGUCUCAAUCAACUCUAUCCCCAGGGAAAACCCUGGCAAUUUCAACAGCUCGCAGUCAAG”, 0.0125; under “GGUCACGUCUCAAUCAACUCAAUUUCCAGGGAAAUCCCUGGUUUUCUCAACAGCUCGCAGUCAAG”, -0.416.
For the sequence “GGUCACGUCUCAAUCAACUCAGGUCCAGGAGUUUACUCCUGCAAUUUCAACAGCUCGCAGUCAAG”, the binding signal (log2 fold change) is 0.516.
“GGUCACGUCUCAAUCAACUCAUGUCCAGGAGUUUACUCCUGCUAUUUCAACAGCUCGCAGUCAAG”: the binding signal (log2 fold change) was determined as 0.0394.
Turning to “GGUCACGUCUCAAUCAACUCAAUCUCAGGAGUUUACUCCUGCUAUUUCAACAGCUCGCAGUCAAG”, the binding signal (log2 fold change) is -0.122.
